Test results: a compilation of properties of binary mixtures (doi:10.1039/b704843b)
Some of these densities may be calculated back from excess volumes.

Experiment: xn = mol fraction of the nth substance listed
Conditions: 101 kPa

CCCC[n+]1ccn(C)c1.F[P-](F)(F)(F)(F)F + O
mass density [kg/m3]
Conditions	298.15 K	303.15 K	308.15 K	313.15 K	318.15 K
x1 = 0.0003	998.6	996.9	995.3	993.6	992
x1 = 0.0006	1000.3	998.5	996.8	995.1	993.4
x1 = 0.001	1002.6	1000.7	999	997.2	995.5
x1 = 0.0013	–	1004.2	1002.4	1000.5	998.8

O + CCCC[n+]1ccn(C)c1.F[P-](F)(F)(F)(F)F
x1 = 1
Conditions	mass density [kg/m3]
298.15 K	997.5
308.15 K	994.3
313.15 K	992.6
